# Measurements as given in US20250327097A1, “ORGANISMS PRODUCING LESS CROTONIC ACID” (Global Bioenergies, priority 2021, published 2025).
# How the values were obtained:
# [1] = system: TaFdcV; experiment: Acid binding and cycloadduct formation with TaFdcV (UV-Vis, ESI-MS, co-crystallization)
# Description: (§1) Incubation of 80 μmol TaFdcV with 10 mM 3-methylcrotonic acid led to a complete shift in the corresponding UV-Vis spectrum.
# (§2) In order to assess the scope for activity with acrylic acids lacking extended conjugation, TaFdc and TaFdcV were incubated with trans-2-pentenoic and trans-2-hexenoic acid, compounds that have previously been reported to undergo some AnFdc-mediated decarboxylation.
# (§3) The effects of crotonic and 2-butynoic acid on TaFdcV were studied to determine whether the mutations that increase in 3-methylcrotonic acid turnover also affected activity with related compounds. Incubation of TaFdcV with 2-butynoic and crotonic acid led to the familiar split of the 380 nm prFMN peak in the UV-Vis spectrum (FIGS. 7A and D), similar to 3-methylcrotonic acid.
# Upon addition of crotonic acid, a gradual shift in UV-Vis spectrum occurs over minutes, allowing estimation of adduct formation rate (FIG. 8A). The observed rate remains first order with respect to crotonic acid, with kobs=0.34±0.03 min at the highest concentration tested (50 mM) (FIG. 8B). In contrast, a similar shift in UV-Vis spectrum upon addition of the substrate 3-methylcrotonic acid occurs rapidly within seconds, and at substantially lower 3-methylcrotonic acid concentrations.
# No decarboxylation of the Int1 with 2-butynoic acid was detected, even in 1-month-old crystals. […]
# [2] = system: TaFdc; experiment: Acid binding and cycloadduct formation with TaFdc wild-type (UV-Vis)
# Description: as §1, §2, §3
compound,measurement,setting,value
CC(C)=CC(=O)O [3-methylcrotonic acid],"binding to TaFdcV, UV-Vis spectrum after desalting",[1],"long-lived, inhibitory covalent complex with 3-methylcrotonic acid is not formed"
same,"binding to TaFdc, UV-Vis spectrum after desalting",[2],"long-lived, inhibitory covalent complex with 3-methylcrotonic acid is not formed"
C/C=C/C(=O)O [crotonic acid],state of the adduct by ESI-MS and co-crystallization,[1],undergoes decarboxylation to stall at the Int3 species
